PubChem BioAssay (NCI)
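Five compound concentrations were applied to cells in 96-well plates for 48 hours; endpoints were derived by simple linear interpolation of the resulting dose-response curve. Abbreviation: GI50, concentration required for 50% inhibition of growth. At the TGI there is no net growth.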

Each molecule was assayed on NCI-H322M lung (assay: DTP human tumour cell line panel, 48 h).

Going from `O=C(NC(Cc1ccc(I)cc1)C(=O)O)c1ccc(I)cc1` (stereo not given) to `C[n+]1c2ccccc2cc2c(CNC(CCCN=C(N)N)C(=O)O)cccc21` (stereo not given), the TGI falls from greater than 100 µM to 21.2 µM.

`CC12CC(=O)C3C(C(=O)C1)C32C` (stereo not given) and `Cc1cn(C2OC(C)(CO)C(O)C2O)c(=O)[nH]c1=O` (stereo not given) cannot be ordered by TGI: greater than 100 µM for the first, greater than 100 µM for the second.

`CC1(C)OC2COC3(CNO)OC(C)(C)OC3C2O1` (stereo not given) and `CC1(C)N=C(N)N=C(N)N1c1ccc(OCC(=O)Nc2ccccc2)c(Cl)c1` cannot be ordered by TGI: greater than 100 µM for the first, greater than 100 µM for the second.

`Cc1ccccc1C(O)(c1nccn1C)c1nccn1C` and `CCOC(=N)n1c(=O)n(C2=NCCN2)c2ccccc21` cannot be ordered by TGI: greater than 100 µM for the first, greater than 100 µM for the second.

`CC(C(=O)n1nnc2ccccc21)N(c1ccccc1)c1ccccc1` (stereo not given) and `O=C(CNc1ccccc1Cl)Nn1c(-c2ccccc2)nc2ccccc2c1=O` cannot be ordered by TGI: greater than 100 µM for the first, greater than 100 µM for the second.

`Cc1cc(N(CCC#N)CCC#N)ccc1/C=C1N=C(/C=C/c2ccccc2)OC(=O)N\1` and `CCOC1Oc2ccccc2-c2oc(=O)c(Sc3ccc(C)cc3)cc21` (stereo not given) cannot be ordered by TGI: greater than 100 µM for the first, greater than 100 µM for the second.

`CC1(c2ccccc2)CC(c2ccccc2)=NO1` (stereo not given) and `NNC(=O)c1ccc[n+](CCc2ccccc2)c1` cannot be ordered by TGI: greater than 100 µM for the first, greater than 100 µM for the second.

First: CCC(=C(c1ccc(OCCCN(C)C)cc1)c1ccc(OCCCN(C)C)cc1)c1ccc(Cl)cc1
Second: CCCCCCCCCCN=C(c1ccc(N(C)C)cc1)c1ccc(N(C)C)cc1
The TGI of the first is lower: 2.95 µM for the first, greater than 100 µM for the second.

First: O=c1cc(N=P(c2ccccc2)(c2ccccc2)c2ccccc2)n(-c2ccccc2)c(=O)n1-c1ccccc1
Second: O=C1/C(=C\c2cccc(Oc3ccccc3)c2)S(=O)(=O)C(c2ccccc2)N1Cc1ccccc1 (stereo not given)
The TGI of the first is lower: 92.2 µM for the first, greater than 100 µM for the second.

First: O=C1C(SCCO)=C(SCCO)C(=O)c2ccccc21
Second: CN(C)Cc1c[nH]c2c(NCCN)c3c(c(NCCN)c12)C(=O)c1ccccc1C3=O
The TGI of the first is 1.6-fold lower: 3.2 µM for the first, 4.99 µM for the second.

`COC(=O)[C@]12CC[C@H]3CN(C(=O)OCc4ccccc4)[C@H]([C@H]31)[C@H](c1ccco1)N2S(=O)(=O)c1ccc(C)cc1` and `COC1OC(C)C(OCc2ccccc2)C(OS(=O)(=O)c2ccc(C)cc2)C1OS(=O)(=O)c1ccc(C)cc1` (stereo not given) cannot be ordered by TGI: greater than 100 µM for the first, greater than 100 µM for the second.

`Brc1cccc(Nc2nc(-c3cccs3)nc3ccc(Br)cc23)c1` and `NC(=O)c1cccc(Nc2nccc(Nc3cccc(F)c3)n2)c1` cannot be ordered by TGI: greater than 100 µM for the first, greater than 25 µM for the second.

Going from `N#C/C(=C\c1cc(Br)c(O)c(Br)c1)c1cccnc1` to `COc1ccc(/C=C2/CCc3cc4ccc(OC)cc4[o+]c32)c(O)c1`, the TGI falls from greater than 100 µM to 28 µM.

Going from `CC[C@H]1CN2CCc3cc(OC)c(OC)cc3[C@@H]2C[C@@H]1C[C@H]1NCCc2cc(OC)c(OC)cc21` to `COC(=O)c1c2c(cc3c1CC1(C3)Cc3cc4c(c(C(=O)OC)c3C1)CCCC4)CCCC2`, the TGI rises from 0.272 µM to greater than 100 µM.

`CCN(CCO)CC1COc2ccccc2O1` (stereo not given) and `CCOC(=O)/C(=C/c1cccc(OC)c1)N(CC)CC` cannot be ordered by TGI: greater than 100 µM for the first, greater than 100 µM for the second.

`CSc1c(C#N)c(N)n2c1C(=O)N(c1ccccc1)C2=S` and `CC1(Cc2ccccc2)NC(=S)NC1=O` (stereo not given) cannot be ordered by TGI: greater than 100 µM for the first, greater than 100 µM for the second.

`c1ccc2c(c1)NC(C1OC3CCCN3C1C1Nc3ccccc3S1)S2` (stereo not given) and `O=C1C2=C(c3ccccc31)C(c1ccccc1Cl)N1C(=O)CCSC1=N2` (stereo not given) cannot be ordered by TGI: greater than 100 µM for the first, greater than 100 µM for the second.

`CSc1cc(Cl)c(C)cc1S(=O)(=O)NC(=O)NNc1ccc(Cl)cc1` and `O=C1C=C(O)c2[nH]c(=O)ccc2C1=O` cannot be ordered by TGI: greater than 100 µM for the first, greater than 100 µM for the second.

Going from `O=c1c2c3c(sc2n2c(-c4cc(-c5ccccc5)nn4-c4ccccc4)nnc2n1Cc1ccccc1)CCCC3` to `COCCOCCOCc1n(Cc2ccc3ccccc3n2)c2ccccc2[n+]1Cc1ccc2ccccc2c1`, the TGI falls from greater than 100 µM to 7.09 µM.

Going from `Oc1ccccc1/C=N/c1nc2cc3sc(/N=C/c4ccccc4O)nc3cc2s1` to `COc1ccc2cc(-c3ccc(-c4ccc(C(=N)N)s4)s3)ccc2c1`, the TGI falls from greater than 100 µM to 4.88 µM.

`CC(=O)OCC1OC(n2cc([N+](=O)[O-])c(=O)[nH]c2=O)C(OC(C)=O)C(OC(C)=O)C1OC(C)=O` (stereo not given) and `COc1ccc(C2(CC(C)O)SCCCS2)cc1` (stereo not given) cannot be ordered by TGI: greater than 100 µM for the first, greater than 100 µM for the second.

`O=S(=O)(O)c1cc2ccc1/C=C\c1ccc(cc1S(=O)(=O)O)N=Nc1ccc(c(S(=O)(=O)O)c1)/C=C\c1ccc(cc1S(=O)(=O)O)N=N2` and `O=S(=O)(CCOCc1ccc(-c2ccc3ncnc(Nc4ccc(OCc5cccc(F)c5)c(Cl)c4)c3c2)o1)c1ccccc1` cannot be ordered by TGI: greater than 100 µM for the first, greater than 25 µM for the second.

Going from `COc1c(Br)cc(Br)c(OC)c1-c1[nH]c(Br)c(Br)c1Br` to `C=CCNC(=S)/N=C/c1c(O)c2ccccc2oc1=O`, the TGI rises from 21.8 µM to greater than 100 µM.

Compared with `CC1(C)N=C(N)N=C(N)N1c1ccc(OCC(=O)Nc2ccccc2)c(Cl)c1`, `NC(=O)c1cccc(Nc2nccc(Nc3cccc(F)c3)n2)c1` is 1.5-fold lower in GI50: 12.7 µM for the first, 8.38 µM for the second.

Going from `CCC(=C(c1ccc(OCCCN(C)C)cc1)c1ccc(OCCCN(C)C)cc1)c1ccc(Cl)cc1` to `CCCCCCCCCCN=C(c1ccc(N(C)C)cc1)c1ccc(N(C)C)cc1`, the GI50 rises from 0.967 µM to 3.52 µM (3.6-fold).

Compared with `CCOC1Oc2ccccc2-c2oc(=O)c(Sc3ccc(C)cc3)cc21` (stereo not given), `COc1ccc2cc(-c3ccc(-c4ccc(C(=N)N)s4)s3)ccc2c1` is 23-fold lower in GI50: 46.4 µM for the first, 2.02 µM for the second.

First: O=c1c2c3c(sc2n2c(-c4cc(-c5ccccc5)nn4-c4ccccc4)nnc2n1Cc1ccccc1)CCCC3
Second: COCCOCCOCc1n(Cc2ccc3ccccc3n2)c2ccccc2[n+]1Cc1ccc2ccccc2c1
The GI50 of the first is higher: greater than 100 µM for the first, 1.08 µM for the second.

Compared with `COc1ccc(/C=C2/CCc3cc4ccc(OC)cc4[o+]c32)c(O)c1`, `O=S(=O)(CCOCc1ccc(-c2ccc3ncnc(Nc4ccc(OCc5cccc(F)c5)c(Cl)c4)c3c2)o1)c1ccccc1` is 5.5-fold lower in GI50: 14 µM for the first, 2.56 µM for the second.

First: CN(C)Cc1c[nH]c2c(NCCN)c3c(c(NCCN)c12)C(=O)c1ccccc1C3=O
Second: C[n+]1c2ccccc2cc2c(CNC(CCCN=C(N)N)C(=O)O)cccc21 (stereo not given)
The GI50 of the first is 8-fold lower: 1.19 µM for the first, 9.53 µM for the second.

Molecule `OC(CN1CC1)C(O)CN1CC1` (stereo not given) has a GI50 greater than 50 µg/mL.

Molecule `OC(CN1CC1)C(O)CN1CC1` (stereo not given) has a TGI greater than 50 µg/mL.
